Assay results reported in the supplement of paper PMC12067230.
Single values of this set are uncertain.

assay: amyloid nucleation score relative to library mode (yeast Sup35 reporter selection) (log enrichment difference); higher = more amyloid nucleation; sequences are the first 22 residues of the Bri2 peptide extended by up to 12 random residues; settings: random library (experiment): 1;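 active = nucleation score significantly above 0 at FDR 0.05; inactive = not significantly above 0 or absent from output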
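Note: [psi-pin-] Saccharomyces cerevisiae expressing SupN fusions, induced by 100 µM Cu2SO4, selected 7 d at 30 °C without adenine and uracil, scored by deep sequencing of output versus input.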

Sequence	amyloid nucleation score
EASNCFAIRHFENKFAVETLICHPKAMP	0.348
EASNCFAIRHFENKFAVETLICTYKFSTWINQLD	inactive
EASNCFAIRHFENKFAVETLICDTCERNGPWQLT	inactive
EASNCFAIRHFENKFAVETLICVVVWRS	inactive
EASNCFAIRHFENKFAVETLICDWWLCNNTAKHR	1.87
EASNCFAIRHFENKFAVETLICRIVSTPRSGWAA	-0.295
EASNCFAIRHFENKFAVETLICLPLISFELLLGG	-0.146
EASNCFAIRHFENKFAVETLICLYWNKREKCRGV	inactive
EASNCFAIRHFENKFAVETLICWNMKVSQSSA	inactive
EASNCFAIRHFENKFAVETLICNVMWRG	inactive
EASNCFAIRHFENKFAVETLICVVSNI	inactive
EASNCFAIRHFENKFAVETLICFQSFDCQLVWDY	3.3
EASNCFAIRHFENKFAVETLICVHAWVVASQALR	inactive
EASNCFAIRHFENKFAVETLICCTRSDPLFLYWA	5.83
EASNCFAIRHFENKFAVETLICDEL	inactive
EASNCFAIRHFENKFAVETLICCRTSKPPVGTSF	inactive
EASNCFAIRHFENKFAVETLICYTVRESLFVVGC	inactive
EASNCFAIRHFENKFAVETLICVVVLAGGGLVRC	3.36

same assay, conditions: random library (experiment): 2

Sequence	amyloid nucleation score
EASNCFAIRHFENKFAVETLICFAIPQVYYIGGA	inactive
EASNCFAIRHFENKFAVETLICHTLWNLAMDSVD	inactive
EASNCFAIRHFENKFAVETLICMCMVFPYVHPHR	2.22
EASNCFAIRHFENKFAVETLICNQ	inactive
EASNCFAIRHFENKFAVETLICYALGHLTLHFGS	3.03
EASNCFAIRHFENKFAVETLICGVPYMNYVGRMG	3.4
EASNCFAIRHFENKFAVETLICLQVCRFIRGSRV	-0.278
EASNCFAIRHFENKFAVETLICVRYFSNRSLTQE	1.87
EASNCFAIRHFENKFAVETLICYALFYQLKFIWS	inactive
EASNCFAIRHFENKFAVETLICCGSIALPRLNGR	8.8
EASNCFAIRHFENKFAVETLICHYVLYLWRFTNH	inactive
EASNCFAIRHFENKFAVETLICNECMFSVSVGDG	inactive
EASNCFAIRHFENKFAVETLICIMGLRRDHYICW	inactive
EASNCFAIRHFENKFAVETLICYLYTSIRARSWR	inactive
EASNCFAIRHFENKFAVETLICIMCCFCYYSRFG	3.29
EASNCFAIRHFENKFAVETLICFQICNGPSIRAW	6.3
EASNCFAIRHFENKFAVETLICLSNMKGFACRDN	inactive
EASNCFAIRHFENKFAVETLICYDNVP	inactive
EASNCFAIRHFENKFAVETLICNHMRASP	1.04
EASNCFAIRHFENKFAVETLICMSLF	8.53

same assay, conditions: random library (experiment): 3

Sequence	amyloid nucleation score
EASNCFAIRHFENKFAVETLICRCG	inactive
EASNCFAIRHFENKFAVETLICVLCVS	6.18
EASNCFAIRHFENKFAVETLICPQKMRTWHRIGV	inactive
EASNCFAIRHFENKFAVETLICVARDRGSPLALW	inactive
EASNCFAIRHFENKFAVETLICGGCHVDSRDLWQ	6.78
EASNCFAIRHFENKFAVETLICQYECAYGGRGWA	0.749
EASNCFAIRHFENKFAVETLICFSVTNKIIEGIT	inactive
EASNCFAIRHFENKFAVETLICGMVVRLMLFVHG	inactive
EASNCFAIRHFENKFAVETLICAKLGEGR	inactive
EASNCFAIRHFENKFAVETLICLEFKSS	inactive
